According to the supplement of paper PMC11417369:
This is one part of the list.

The sequences below were run on PfSIP2 AP2 domain 1 (GST-tagged) (assay: gcPBM binding intensity (ln(normalized median fluorescence intensity)); higher = stronger DNA binding).
In short: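 Each value is the highest Masliner-normalised natural-log median intensity across replicate spots of either orientation of a probe. The probes were primer-extended double-stranded 36-bp intergenic genomic sequences on an Agilent 4 × 180k array, alongside negative controls, exposed for 1 h to GST-tagged P. falciparum DNA-binding domains expressed in E. coli. Bound protein was picked up with Alexa488 anti-GST antibody and scanned at 488 nm.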

Row | Sequence | gcPBM binding intensity (ln)
1 | ATATAAAAATACAGGTGTACATTTTTTCATATTTAT [XGTACX_site6959] | 7.18
2 | TTTCCCATAGGAAAAACACACATATATTATATATAA [CACACA_site1981] | 6.72
3 | CAATATTATATTACTTGTACACATATGTAGTTTCGA [XGTACX_site8945] | 7
4 | CAAAATATACACACGTGTACACAAATATTTACAAAA [XGTACX_site2257] | 7.29
5 | TTATTAAAAAAAATATGTACTCACAATATAATATAT [XGTACX_site3738] | 7.24
6 | GAAATTTTTAAAAAGGTGCTTTTAACAAAAATTATT [GTGCAC_site9687] | 7.81
7 | TTTTTTTTTTCTTGTTGTACTTTTAATAATTCATAT [XGTACX_site4704] | 7.01
8 | TATATATATATAACATGTACATAAAATACATTTATA [XGTACX_site7370] | 8.64
9 | ACCATCCTTAATACTTATTTTTTCACAATTAAGTAA [GTGCAC_negctrl_site269] | 7.33
10 | TTAGCAACTATTACTACACACATTTGTATATAATTT [CACACA_site1591] | 6.83
11 | AAAAAAAAAAAAAGATGTACATATATTTTTATTATA [XGTACX_site654] | 7.28
12 | AACCATTCTTCTAATTGTACATTGAAAAATCATGAT [XGTACX_site3854] | 7.07
13 | AAGGATATAAAAAAACGTACGTACGATAATATAATT [XGTACX_site1292] | 7.04
14 | AGTATTTTAATTTCAGTGCATTTTATTCTATAATTA | 8.53
15 | AAAAAAAAAAAAAATGCATGTGCGTAAATAATAATA [TGCATGCA_site793] | 7.21
16 | AAGTTTTCTTACAGATGTACTTTTTAAAAATAAACT [XGTACX_site6632] | 7.05
17 | ATATATATCTATATTTGTACATATTACATTCAAGTT [XGTACX_site1749] | 7.31
18 | TTTAGGAAAGGCGGCACACATTTATATATTTATTTA [CACACA_site5931] | 6.81
19 | TTTTATCGATATATCTGTACATATTACTTATAATAA [XGTACX_site57] | 7.01
20 | TTAATTTATTTATGCACACATATATAATTACACATA [CACACA_site4544] | 7.61
21 | TGCTATAATTTATATACACACAAATATATACTCATA [CACACA_site6111] | 6.98
22 | TATAACTATTTATAATGTACTCATGTATAATTATAT [XGTACX_site7913] | 6.98
23 | TTTATATATTATATAAATATTATTATACTTTAAATA [TGCATGCA_negctrl_site236] | 6.79

Row | Sequence | gcPBM binding intensity (ln)
24 | ATGCTTTTGTCATGTGCACACACGTATATATTATAT [CACACA_site4163] | 9.24
25 | ACATGTATTTATAAGAGTACATATGTGTGCATGTTT [XGTACX_site7946] | 7.67
26 | TTTATAATATACATAACACACAATTATTATTTCTTA [CACACA_site3624] | 6.92
27 | AACTTTTAGAAGAACACACACATATAGATTATGACC [CACACA_site6256] | 6.97
28 | TTTTTTTCCTTATCTATATATAATCAAATTTTCTAC [CACACA_negctrl_site867] | 7.1
29 | TTATAACAAATATAGAGTACTAAAATTTTACGTTAT [XGTACX_site1410] | 6.98
30 | TCGAACATTAACATAACACACATATATATATATATA [CACACA_site2900] | 9.65
31 | AAGGTTATTTATATATGTACTTAATATATATATATG [XGTACX_site886] | 7.15
32 | TATTTATACATACGTACACACAAATATTAAAATATA [CACACA_site7004] | 7.41
33 | ATTTTTTTTTTTTGTACATACCACATATACAAAACA [CACACA_negctrl_site1240] | 7.29
34 | TTTTTTTTTTTCTCCATACACACTTGATAAAACTTT [CACACA_site615] | 6.85
35 | TAATTGATTCTTCACCGTACTCACACATATATATAT [XGTACX_site6530] | 8.93
36 | ATATATTATAAATGTAGTACCGTTACATAGTCATAG [XGTACX_site390] | 6.99
37 | CACACCACCAACAAAAGTACATACATATATATATAT [XGTACX_site5781] | 8.99
38 | TATATATTGCCCTTCACACACACACCCATATATATA [CACACA_site2493] | 7.44
39 | ACTACGAGTCGTAGAGTGCAGTCTGGAGAAAAGTAC [GTGCAC_site9769] | 9.01
40 | ATCAAGCACGAACACACACACACACGCACGCCCACA [CACACA_site6308] | 7.31
41 | GGTATTTATGGACGCGTGCACACACATATGAACAAA | 9.35
42 | TTTTGATTTTTTTATTGTACCCATAAACATATAATT [XGTACX_site5202] | 7.39
43 | TATTTTTGAAGTTGCACACACAAAAATAAAAAGTAT [CACACA_site418] | 7.84
44 | TACAAACAATTAAACAAACACACATATACATGTATA [CACACA_site2061] | 6.92
45 | ATATTTACTCACGTCTTGCACTGAGCAAGCATTATA | 7.12
46 | TCATGTTTTTAATATTGTACTCTCATTTTATATATC [XGTACX_site8412] | 6.97

Row | Sequence | gcPBM binding intensity (ln)
47 | AGCTATTAATTTATTACATGCAAGATTAAAAGACTA [TGCATGCA_site281] | 6.72
48 | AAAAAAAAAAAAAAATCACACATTGGTTAAATATTA [CACACA_site5344] | 7.11
49 | CTATCAAATAATAGCAAACACACAAAAAATAAAAAA [CACACA_site4147] | 6.91
50 | ATTCATACATGCACACGTACATATTTAAATATAAAA [XGTACX_site8388] | 8.17
51 | ATTTTTTATGAAAACATAAAAAAATGAGATAACCAT [CACACA_negctrl_site894] | 7.12
52 | AAAAAAAAAAGACACACACACACACGGACACATACA [CACACA_site7363] | 7.1
53 | GACATTAATTATTTGACACACGACTGGGTGGTGATT [CACACA_site306] | 6.63
54 | TTTTTTTTTTATACATGTACTTAAAAGTAGCACCTT [XGTACX_site1855] | 9.35
55 | TGATTCAATTTATGCACACTAAAAATTAATTATATT [CACACA_site271] | 8.42
56 | ATTATATATACAACAAGTACAAAAGAAAAATATTAT [XGTACX_site2914] | 7.14
57 | TTTGTAAAAGGTCATACACACATATTCAAAAGAAGT [CACACA_site2947] | 7.26
58 | TATAAATACATCCTATACTTCTCTTTTACAGTTTTA [CACACA_negctrl_site1283] | 6.8
59 | ATATATATATATAATTGTACATTTTTAACCTTAACA [XGTACX_site7910] | 9.36
60 | TTTTATGTTTTTTTTATAAATATTAAAATTCTATAT [CACACA_negctrl_site1477] | 6.87
61 | ATATTGTTATATGTTTGTACATATTTTTTATATTTT [XGTACX_site6834] | 6.92
62 | AATGTTAAAAATGAAAGTACATGGAATTTATTATTT [XGTACX_site4095] | 6.95
63 | AAAAAAAAAAAATACACACACACATATAAATATGTA [CACACA_site6900] | 7.02
64 | GTTTATATATGCTTATAATTTTCAATTGTTTTACAA [TGCATGCA_negctrl_site384] | 6.89
65 | TGTGTGGATATATGTATGCACTACCCTTTGGGTCAT [GTGCAC_site9506] | 8.47
66 | AAATATTAAATGGAAAACAAATATATATATCTTAAT [XGTACX_negctrl_site383] | 6.7
67 | ATATATTGAACCTATGCATGTAAAATATATGTAATA [TGCATGCA_site644] | 6.91
68 | ATATATATATATAGGAGTACATGAAATACTTAAAAA [XGTACX_site8851] | 8.99
69 | AAAAAAGAAATAATCAAATAAATAAAAAAGATGAAT [XGTACX_negctrl_site607] | 6.95

Row | Sequence | gcPBM binding intensity (ln)
70 | GTGTGAAGATATAAATGCATTTTTTTATACATTTTC [CACACA_negctrl_site117] | 6.96
71 | TGTAAGTATTCTTGAGGTACACATATAAATATAGTA [XGTACX_site3207] | 6.99
72 | AATATTATATAATAAAGTACATATATATTCATATTT [XGTACX_site7204] | 7.09
73 | TATTAATACAGACACACACACACACTAATTAAAATA [CACACA_site7967] | 7.15
74 | ATTTACCCTTGCCATGCACACTTTTTTATAGAAAAT [CACACA_site5857] | 7.97
75 | AATATATAATTAATTGCACACCTTGTCACGCCAAAA [CACACA_site1174] | 7.2
76 | GAATGAATACGTTTTACACACTTGAATATAATTTCA [CACACA_site989] | 6.87
77 | ATATATAAATTTAATACACACCCAAAAAAAAAAAAA [CACACA_site7719] | 7.03
78 | TAAATATATAAACACACACACATTAATACAGATATT [CACACA_site5851] | 6.9
79 | AAAATTATAAAATGGGCACACATGAAGATTGTAGTA [CACACA_site2226] | 6.85
80 | TTATTTATTTTTTCATGTACTTAAATATATTAATGT [XGTACX_site5804] | 7.19
81 | ATCTATATTTTTATAACACACAATGATGTACATTAC [CACACA_site6633] | 7.24
82 | TGAAAATATTTTATATGTACATATATTATCAATACA [XGTACX_site92] | 7.08
83 | TAGAATAATCTATAAACACACAAACCCAACAAAAGA [CACACA_site6132] | 7.31
84 | GGTAATAAACAATGAAGTACGTAAAGGTAAAATATT [XGTACX_site2647] | 7.46
85 | TTATTAGGTATATATGCACACAATACCCAAAACAAC [CACACA_site4221] | 9.24
86 | TAATAATCAAACTATACACACATAAATAGATATATA [CACACA_site6220] | 6.95
87 | ATTTAATTTTCATGATGTACTATAGTTTAATGCACA [XGTACX_site1624] | 9.33
88 | TGTAAATATAAATGTAATAAATATGTAAAAATAAAT [XGTACX_negctrl_site171] | 7.12
89 | TATTTTCAAAAATATACACACACATAAATATATGTA [CACACA_site8160] | 6.92
